Assay results reported in the supplement of paper PMC12217912.
The list shows a part of the results. Sequences were assembled here from the parent chain. Values near 0.05 are background.

B1: TEV protease; numbered along this chain (parent)
chain: MGESLFKGPRDYNPISSSICHLTNESDGHTTSLYGIGFGPFIITNKHLFRRNNGTLVVQSLHGVFKVKDTTTLQQHLVDGRDMIIIRMPKDFPPFPQKLKFREPQREERICLVTTNFQTKSMSSMVSDTSCTFPSGDGIFWKHWIQTKDGQCGSPLVSTRDGFIVGIHSASNFTNTNNYFTSVPKNFMELLTNQEAQQWVSGWRLNADSVLWGGHKVFMVKPEEPFQPVKEATQL

Variants of: B1
Experiment: raw area under fraction-flipped curve 0-4 h after induction (AUC4h, not background-subtracted), DNA-recorder readout of cleavage of the substrate (dimensionless); higher = more cleavage of the substrate by the protease variant
Details: temperature: 34 °C; time window: 0-4 h after rhamnose induction
Procedure: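 In vivo DNA recorder in E. coli TOP10(DE3) ΔrhaA at 34 °C. Each TEVp single-site mutant (parent TEVp 0) is paired with a single-site variant of the 7-mer TEVs (canonical ENLYFQ|S). The substrate sits between flexible linkers in a Bxb1-sfGFP-TEVs-SsrA fusion, so cleavage stabilises Bxb1 and speeds flipping of a recombination array, read by NGS. The value is the raw area under the fraction-flipped curve over 0-4 h after rhamnose induction (AUC4h), with ≥20 reads per time point. It is not background-subtracted; inactive controls average about 0.047.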
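Also: Bxb1 expression induced with 0.2% (w/v) L-rhamnose at OD600 near 0.5, cultures sampled hourly, flipped fraction per protease–substrate barcode pair counted by paired-end Illumina sequencing.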

Variant | area with substrate ENLYFQA | area with substrate ENLYFQD | area with substrate ENLYFQE | area with substrate ENLYFQG | area with substrate ENLYFQH | area with substrate ENLYFQI | area with substrate ENLYFQK | area with substrate ENLYFQL | area with substrate ENLYFQN | area with substrate ENLYFQP | area with substrate ENLYFQR | area with substrate ENLYFQS | area with substrate ENLYFQT | area with substrate ENLYFQV | area with substrate ENLYFQC | area with substrate ENLYFQF | area with substrate ENLYFQM | area with substrate ENLYFQQ | area with substrate ENLYFQW | area with substrate ENLYFQY
L99C | 0.104 | 0.0767 | 0.0467 | 0.0937 | 0.0476 | 0.0467 | 0.0637 | 0.0601 | 0.0845 | 0.053 | 0.0615 | 0.0956 | 0.0642 | 0.0493 | – | – | – | – | – | –
T71F | 0.0815 | 0.0567 | – | – | – | 0.0512 | 0.0653 | 0.056 | 0.062 | 0.0556 | 0.0589 | 0.0828 | 0.0597 | – | 0.0828 | 0.0562 | 0.0829 | 0.0615 | 0.0647 | 0.0544
T71A | 0.0912 | 0.0726 | – | 0.0794 | 0.0777 | 0.0665 | 0.0498 | 0.0658 | 0.0744 | 0.063 | 0.0704 | 0.0897 | 0.0602 | – | 0.108 | 0.061 | 0.0877 | – | 0.0572 | –
D69H | 0.0963 | 0.0054 | 0.0452 | 0.0683 | 0.0666 | 0.0508 | 0.0542 | 0.0597 | 0.0666 | 0.056 | 0.0549 | 0.094 | 0.0572 | – | 0.0338 | 0.0678 | 0.0855 | 0.0735 | – | –
D69Q | 0.0958 | 0.0671 | – | – | 0.0784 | – | – | 0.0633 | 0.0725 | 0.0628 | 0.0459 | 0.091 | 0.0645 | 0.0584 | – | – | 0.062 | 0.0431 | 0.0683 | 0.0782
K66F | 0.0919 | 0.0685 | – | 0.111 | 0.0506 | 0.0459 | – | 0.0736 | 0.0601 | 0.0615 | 0.0633 | 0.107 | 0.0596 | 0.0437 | 0.143 | – | – | 0.0747 | 0.0587 | –
S60V | 0.0915 | 0.072 | – | 0.101 | 0.0664 | 0.054 | 0.0578 | – | 0.0774 | 0.0614 | 0.0517 | 0.0908 | 0.0537 | 0.0538 | 0.0975 | 0.109 | 0.0793 | 0.0561 | 0.0451 | 0.0689
S60F | 0.0882 | – | – | 0.108 | 0.0738 | – | 0.0531 | 0.0639 | – | – | – | 0.102 | 0.0952 | 0.0637 | 0.128 | – | 0.0796 | – | 0.0728 | 0.114
Q59V | 0.108 | – | – | 0.102 | – | 0.0583 | 0.0603 | 0.0632 | 0.0972 | 0.077 | – | 0.106 | 0.062 | 0.0645 | 0.121 | – | 0.063 | – | 0.0586 | 0.0839
I85F | 0.075 | 0.0676 | – | 0.0718 | 0.0615 | 0.0609 | 0.0604 | 0.06 | 0.0875 | 0.0472 | 0.0596 | 0.0966 | 0.0848 | 0.0559 | – | 0.0559 | – | 0.0513 | 0.0667 | –
V64N | 0.109 | 0.0691 | – | 0.119 | – | 0.0497 | – | 0.062 | – | – | 0.0431 | 0.103 | 0.0642 | 0.0557 | 0.122 | 0.0743 | 0.0675 | – | 0.0565 | –
V78G | 0.0938 | 0.0591 | – | 0.0833 | 0.0567 | – | – | 0.0524 | – | 0.0607 | 0.0629 | 0.0848 | 0.0499 | 0.0537 | 0.0925 | – | 0.0854 | – | 0.0623 | 0.0573
